Data published in ChEMBL document CHEMBL4888484, “Replenishing the malaria drug discovery pipeline: Screening and hit evaluation of the MMV Hit Generation Library 1 (HGL1) against asexual blood stage Plasmodium falciparum ,using a nano luciferase reporter read-out” (2022).
Out of some 150,000 compounds screened, about 540 (0.36%) showed an effect of 50% or more. The list shows a part of the results.

tested on: Plasmodium falciparum; experiment: Primary screen in NF54 nanoGlo assay, in single point, at 2uM, 72h; a lower Z score goes with more inhibition; assay type: functional, Erythrocyte; details: timepoint 72 hour

| SMILES | % Inhibition [%] | Z score |
| --- | --- | --- |
| Cc1c(CC(=O)NC2CC2)c2c(n1Cc1ccccc1F)CCCC2=O | -3 | 0.52 |
| CCCS(=O)(=O)NCC1(N2CCOCC2)CCCCC1 | -1 | 0.16 |
| COC[C@H](Cc1ccccc1)NCc1ccc(CN2CCCC2)cc1 | 0 | -0.04 |
| COc1ccccc1N1CCN(c2snnc2C(N)=O)CC1 | -29 | 3.44 |
| Cc1cc(C(=O)Nc2nc(-c3ccc4c(c3)CCC4)n[nH]2)no1 | 33 | -0.69 |
| O=S(=O)(Nc1cnc(N2CC3CCC(C2)O3)nc1)c1ccco1 | 0 | 0.04 |
| CC(C)C(=O)N1CCN(c2ccc3c(c2)OCO3)C(=O)[C@@H]1C | -14 | 2.42 |
| O=C(c1cc(-c2ccccc2F)n[nH]1)N1CCC[C@@](O)(CO)CC1 | -8 | 1.38 |
| CN(C)c1nn(CC(=O)Nc2ccc3c(c2)OCO3)c(=O)c2ccccc12 | 5 | -0.79 |
| CCC(C)(C(=O)NC1CCCC1)N(C(=O)c1cccs1)C1CCCO1 (stereo not drawn) | 41 | -5.33 |
| COC(=O)N1CCC(CNC(=O)c2ccc(Br)o2)CC1 | -8 | 1.27 |
| CCOc1cc(CNC2CC(F)(F)C2)ccc1OC | -2 | 0.38 |
| Cc1nccc(N2CCC[C@H](CNC(=O)c3ccoc3)C2)n1 | -19 | 2.04 |
| CN1CCC(NC(=O)c2nccnc2N)C1c1ccc(Cl)c(F)c1 (stereo not drawn) | -1 | 0.09 |
| C[C@@H](c1cccc(Cl)c1F)N1CCCn2nncc2C1 | -8 | 0.67 |
| O=C(CC1CCNCC1F)Nc1nc(-c2ccc(OC(F)F)cc2)cs1 (stereo not drawn) | -11 | 1.8 |
| CC(C)[C@H](NC(=O)[C@H]1CC[C@H](Cn2nnc3ccccc3c2=O)CC1)C(=O)O | -12 | 1.62 |
| CC(C)[C@@](C)(O)CNC(=O)c1ccc(Cl)cc1Br | 11 | -2.04 |
| CN1CC[C@H](N2CC3(CCC2=O)CCN(C(=O)c2ccc(O)cc2)CC3)C1 | 8 | -1.07 |
| CCN(CC)CCN[C@@H](C)c1cccc(OC)c1 | -5 | 0.46 |
| C[C@@H](C(=O)NCC(F)(F)F)N(C)CCc1ccc(F)cc1 | -14 | 1.7 |
| CCOC(=O)c1cnc2c(Cl)c(Cl)ccc2c1N(C)Cc1ccccc1 | -5 | 0.74 |
| COc1ccccc1[C@H](Nn1cnnc1)c1cccc(F)c1O | 1 | -0.08 |
| CC(C)(C)OC(=O)NCCc1ccc2c(c1)CCCN2 | -8 | 1.18 |
